Results: PubChem BioAssay (NCI)
Some structures have more than one record in an assay (separate samples or runs), and their calls can disagree.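 Single-concentration screen, 48 h exposure, 96-well plates. Endpoint: percent growth. Below 10 = active.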 For part of its entries the source gives two or more results. Only these are listed. There may be further records. The screen tested this drug many times, at the concentration stated with the values; one value stands for one run. Marks such as (2×) give the number of equal values in this list.

Legend:
COLO 205 colon = experiment: NCI-60 one-dose screen, 48 h (100 = growth as untreated, 0 = no growth, -100 = all killed); conditions: 2.5 mM
DU-145 prostate = experiment: as above; conditions: 2.5 mM

O=c1[nH]cc(F)c(=O)[nH]1
growth (COLO 205 colon; runs of 1991): inactive: 23.2, 13.9, 19.4, 10.5% and active: -61, -26.3, -95.3, -40.2, -2.72, 9.16, 0.615, -53.3, -46.5, 9.63, -17.4, -37.7, -52.7, -62.4% | growth (COLO 205 colon; runs of 1992): active: -3.59, 7.35, -48.1, -24.3, -48.9, -68.4, -37.1 (2×), 5.18, 4.47, -34.7, -29.4, -80.1, -90.6, -68.2, -35.5, 3.43, -15.9, 0.516, 0.971, -36.4, -33.4, -29.5, -41.6 (2×), -11.2, -54.1, -23.9, -74.6, -1.61, -78.8, -66.1, -27.9, 8.19, -57.1, -60.4, 9.83, -2.29, 2.14, 8.99, -38.4, -54, -17.6, -37.8, -33.5, -70.2, -42.3 (2×), -38.6 (2×), -75.6, -91 (2×), -44.1, 4, 4.33, -2.78, -10.2, -20.8, -76.4, 6.49, -93.9, -32.4, -74.5, 7.3, 6.75, -44.7 (2×), -15.5, -28.5, -14.6, -59.5, -57.2, -62, -23.8, -73.8, -59.6, 5.42, -64.7, 3.22, -66.4, -21.7, -69.7, 5.12, 9.79, -47.3, -88.1, -71.2, 9.44, -55.2, -18.5, 3.28, 8.24, -56.6, -3.12, -20.7, -53, -42.9, -51.5, -50, -36.7, 2.67, -80.3, -71.6, -6.1, 3.14, -37.5% and inactive: 17.1, 14.8, 47.8, 109, 12.8, 10.2, 17.5 (2×), 15, 18.6, 14.4, 16.9, 12.5, 42.4, 21.5, 10.1, 24.5% | growth (COLO 205 colon; runs of 1993): active: 5.14, 3.36, -23.3, -92.3, -31.3, 6.96, -7.51, -30.4, -46.3, 0.715, 2.56, -29.4, -6.99, -39, -68.7, 0.594, -20.2, -21.1, -37.9, -10.9, -31.4, 3.61, -22.3, -69.2, 4.2, -50.6, -2.31, -78, -80.9, 1.02, -68.6% and inactive: 45.4, 10.5, 17.2, 35.2, 21.7, 24.6, 16.3, 13.4, 52.5, 30, 93.2, 85, 17.7, 14.6, 18.1, 20% | growth (COLO 205 colon; runs of 1994): inactive: 20, 21.5, 18.1, 18.7, 19.2, 10.5, 15.5% and active: -40.7, -16.1, -72, -40.3, -37.8, -74.1, -74.3, 8.82, -69.3, -33.5, 4.39, -5.07, -12.4, -79.6, -34, -85.1, -16.7, 1.9, -70.8, 9.87, -52.4, -39.5, -88.1, 3.94, -86.6, 1.06, -6.46, 3.95% | growth (COLO 205 colon; runs of 1995): active: -2.58, -91.2, -86.9, -62.3, -73.4, -3.24, -43.1, -42.6, -47, -48.2, -88, -71.8, -53.3, 5.65, -71.2, -1.87, -57, -63.5, 3.63, 4.95, -54.6, -17.2, -72.8, -19.3, 0.0764, -45.6, 2.37, 3.25, -2.64% and inactive: 17.9, 19.2, 35, 29.1, 12.6, 22.2, 19, 14, 17.4% | growth (COLO 205 colon; runs of 1996): inactive: 28.9 (2×), 12.2, 10.9, 34.8, 15.8, 29.5, 37.5, 21.7, 16.1, 24.8, 17.7, 19.5, 14, 11.2, 12.3, 25.7, 16.6, 17.4, 25.1, 16.7, 13.4, 19.3, 22, 12.1, 11% and active: -71.5, 5.7, -64.6, -28.1, -7.65, 3.84, -43.2, -71, 8.66, -70.7, -40.8, -31, -9.53, 5.94, -8.58, 9.17, 1.54, -27.1, 6.25, -69.8, -77.6, -74.5, -35.2, -1.33, 0.212, -41.2, -11.4, 1.26, -43.8, 1.96, 0.195, -22.2, -50% | growth (COLO 205 colon; runs of 1997): inactive: 22, 20.8, 15.1, 19.5, 61.5, 10.1, 21.3, 17.3, 12.7, 10.6, 29.3, 11, 20, 14.9% and active: -32.4, 3.75, 7.6, -10.1, -13.8, 5.13, -27.2, -20.8, -2.86, -40.1, -12.2, -9.23, -64.4, -100, -32.6, -86.5, -5.08, -55.2, -43.1, -23.4, -72.5, -16, -16.1 (2×), 4.48, -59.6, -47.6, -29.2% | growth (COLO 205 colon; runs of 1998): active: -17.3, 9.7, -79.8, -77.5, 8.36, -4.27, -0.753, -5.1, -44.8, -57, -13.3, -25.1, -15.6, 4.12, 3.94, 3.26, 9.33, 2.69, 3.2, -3.73% and inactive: 16, 19.4, 29.2, 15.3, 12.2, 29.3% | growth (COLO 205 colon; runs of 1999): inactive: 19.6%, 19.8%, 108% and active: 2.15, -22.3, -59.3, -70.6, -32.4, 0, -67.4, 2.89, 1.23, 0.841% | growth (COLO 205 colon; runs of 2000): active: -48.1, 1.9, 3.8, -31.7% | growth (DU-145 prostate; runs of 1993): inactive: 35.6, 23.6, 30, 25.2, 20.6, 35.1, 21.9, 30.8, 24.1, 31.2 (2×), 29, 22.8, 12.7, 11.4, 20.8, 59.8, 33.8, 104, 26.3, 85.5, 19.8, 21.7, 36.1, 26.8% and active: -34.1, -3.37, 7.04, -38.7 (2×), -18.7, 7.06, 6.02, 9.68, -28, -12.3, 4.22, -8.13, -40, -3.11, 5.86, -7.01, -25.9, -15.1, -17.1, 4.57, 7.29% | growth (DU-145 prostate; runs of 1994): inactive: 38.4, 28.1, 35.8, 17.4, 20, 16.9, 25.7, 35.1, 26.2, 10.3, 23.7, 20.9, 33.5, 42.7, 22.2, 28.9, 14.7, 22.7, 21.9, 19.1, 34.7, 35.3, 13.4, 29.5, 31.4, 13.6% and active: -20.2, 9.62, 7.07, -3.36, 5.42, 8.28, -1.75% | growth (DU-145 prostate; runs of 1995): inactive: 28, 29.9, 14.6, 30.4, 39.1, 19.1, 18.1, 11.5, 12.1, 11.9, 44.2 (2×), 17.6, 21.4, 34.1, 33.8, 14, 21.9, 16.3, 19.5, 18.7, 17.5, 19.9, 33.5% and active: -6.76, 5.82, 2.11, 4.39, -7.98, 4.42, 7.23, 5.3, 4.52, 0.0743, -7.07, 9.43, 3.1, -34.9% | growth (DU-145 prostate; runs of 1996): inactive: 29.9, 27.4 (2×), 20.8 (2×), 14.3, 35.3, 30.7, 23.5, 30, 13, 32.5, 28.7, 21, 21.3, 20.4, 34.8, 37.7, 34.3, 18.7 (2×), 32.9, 30.1, 22.9, 30.2, 33.9, 24.5, 23.1, 23 (2×), 28.9, 16.8, 33.6, 20.7, 16, 10.4, 29.6, 32, 21.9, 24.8, 22.6, 25.8, 36, 11.2, 32.4, 22.1, 30.4, 40.8, 26.9, 13.4, 24.4, 33% and active: -17.7, 3.22, 5.77, 5.99% | growth (DU-145 prostate; runs of 1997): inactive: 23.9, 24, 34.9, 26.7, 30.8, 26.5, 32.6, 20.7 (2×), 13.3, 26.8, 31.6, 52.5, 17, 17.9, 30, 23.8, 27.4, 35.7, 27.1, 29.7, 19.7, 28.6, 21.2, 36.2, 25.8, 25.3, 29.9, 18.5, 19.9, 23.5, 23, 14.4, 29.6, 21.5, 27, 19.3% and active: 9.14, 6.14, -15.3, 9.66%
